Source: patent publication US20110301335A1 (published 2011)

Biological target: T1, human TNFR1 on MRC-5 cells (human, UniProt P19438 30-455)
T1 sequence (looked up): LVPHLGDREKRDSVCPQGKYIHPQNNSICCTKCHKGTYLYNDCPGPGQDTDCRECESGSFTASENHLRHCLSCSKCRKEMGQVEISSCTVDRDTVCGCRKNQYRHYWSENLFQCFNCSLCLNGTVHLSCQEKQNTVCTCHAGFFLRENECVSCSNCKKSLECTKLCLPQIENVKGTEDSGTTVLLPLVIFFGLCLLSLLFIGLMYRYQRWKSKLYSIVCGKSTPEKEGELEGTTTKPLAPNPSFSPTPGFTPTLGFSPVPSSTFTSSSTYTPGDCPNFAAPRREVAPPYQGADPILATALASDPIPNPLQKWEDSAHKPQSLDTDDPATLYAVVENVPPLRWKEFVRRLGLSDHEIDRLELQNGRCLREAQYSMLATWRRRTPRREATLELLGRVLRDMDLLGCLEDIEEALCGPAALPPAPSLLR
Assay: cell-based or functional assay

MRC5 (ND50 in nM): 5 nM
B1: DMS0123 (bispecific antibody, V domains shown)
VH: EVQLLESGGGLVQPGGSLRLSCAASGFTFVKYSMGWVRQAPGKGLEWVSQISNTGDRRYYAD[about 20 residues omitted]MNSLRAEDTAVYYCAIYTGRWEPFVYWGQGTLVTVSS
